# Experimental data published in PubChem BioAssay AID488969 (Vanderbilt High Throughput Screening Facility, 2010).
# In all, about 110,000 compounds were measured (“z-score”: median about -0.1, highest 2% from about 2 on). The list shows a part of the results. The source made the active and inactive calls.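 How the source made its calls: active means z-score in the third read window above 3 or below -3; inactive means the rest.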
# Biological target: Metabotropic glutamate receptor 8 (Rattus norvegicus) (UniProt P70579)
# Chain of UniProt P70579 (P70579 whole entry, looked up): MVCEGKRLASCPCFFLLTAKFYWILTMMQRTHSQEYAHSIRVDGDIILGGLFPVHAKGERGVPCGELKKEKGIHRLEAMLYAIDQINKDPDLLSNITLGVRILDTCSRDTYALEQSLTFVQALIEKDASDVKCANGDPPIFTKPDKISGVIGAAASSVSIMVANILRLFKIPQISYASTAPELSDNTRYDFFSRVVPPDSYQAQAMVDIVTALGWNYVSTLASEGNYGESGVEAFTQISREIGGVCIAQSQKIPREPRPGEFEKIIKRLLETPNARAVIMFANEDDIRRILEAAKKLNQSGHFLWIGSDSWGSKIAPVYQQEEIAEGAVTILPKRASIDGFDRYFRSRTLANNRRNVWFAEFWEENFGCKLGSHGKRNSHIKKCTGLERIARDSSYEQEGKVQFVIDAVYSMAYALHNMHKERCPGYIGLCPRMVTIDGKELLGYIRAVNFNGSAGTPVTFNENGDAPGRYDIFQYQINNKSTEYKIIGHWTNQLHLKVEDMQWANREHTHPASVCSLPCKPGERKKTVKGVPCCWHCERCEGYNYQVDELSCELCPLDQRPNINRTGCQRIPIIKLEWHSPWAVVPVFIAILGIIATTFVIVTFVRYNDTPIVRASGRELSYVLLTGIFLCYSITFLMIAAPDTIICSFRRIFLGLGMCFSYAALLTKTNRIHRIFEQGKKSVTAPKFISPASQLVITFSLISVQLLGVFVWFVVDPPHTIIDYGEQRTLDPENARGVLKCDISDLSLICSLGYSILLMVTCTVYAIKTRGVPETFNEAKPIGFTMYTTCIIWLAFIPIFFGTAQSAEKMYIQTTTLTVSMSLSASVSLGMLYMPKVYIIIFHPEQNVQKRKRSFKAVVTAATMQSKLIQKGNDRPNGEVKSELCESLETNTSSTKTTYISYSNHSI
# Assay: mGluR8 Gi/Go-coupled signaling modulation – cell-based, rat, thallium flux, HTS, primary screen (AID 488969)
# Settings: HEK293 rat mGluR8, GIRK (G protein-gated inwardly rectifying potassium channel) thallium flux, FluoZin2; at 10 µM; stronger effect = higher value; submaximal glutamate (EC20) added with thallium
row,SMILES,z-score
1,COc1ccc(C2=Nc3cccc4cccc(c34)N2)cc1,-0.172
2,CC(NC(=O)C1CC2CCCC(C1)C2=O)c1ccccc1 (stereo not given),0.432
3,Cc1nn(C2CCCCC2)c(N)c1-c1ccccc1,0.796
4,CCCc1nc(N2CCOCC2)c2sc(=S)n(-c3ccccc3)c2n1,-0.0824
5,CC(=O)N1C(=O)N(C)C2C1N(C)C(=O)N2C(C)=O (stereo not given),-0.27
6,COc1ccc(C(=O)Nn2c(SCC(=O)c3ccccc3)nc3ccccc3c2=O)cc1,0.0458
7,O=C(Cn1cc([N+](=O)[O-])cn1)Nc1ccn(Cc2c(F)c(F)c(F)c(F)c2F)n1,-0.201
8,Cc1nc2ncnn2c(N2CCC(C(=O)NC3CCCC3)CC2)c1Cc1ccccc1,-0.964
9,O=C(c1ccco1)n1nc(-c2ccccc2)nc1SCc1ccccc1,-0.293
10,CC(=O)N1N=C(c2ccco2)CC1c1ccc(Br)cc1 (stereo not given),-0.329
11,CCOC(=O)N1CCN(C(=O)CSCC(=O)Nc2nc(-c3ccccc3)cs2)CC1,-0.19
12,COc1ccc(-c2noc(Cc3cccs3)n2)cc1,0.196
13,Cc1cc(C(=O)Nc2ccc(S(=O)(=O)Nc3nccs3)cc2)c(C)o1,-0.331
14,COCCCN1C(=O)c2ccc(C(=O)Nc3cccc(OC)c3)cc2C1=O,0.0614
15,Cc1cn(S(=O)(=O)c2ccc(Br)cc2)cn1,-0.32
16,CCN1C(=O)/C(=C/C=C2\C=CN(CC)c3ccccc32)SC1=S,0.441
17,CN=C(C)c1c(O)c2ccccc2oc1=O,-0.171
18,COc1ccc(-n2nnnc2SCC(=O)c2cc3ccccc3o2)cc1,0.482
19,COc1cc2c(cc1OC)C1=C(C#N)CCC(=O)N1CC2,0.55
20,COc1cc(/C=N/Nc2nnc3c(n2)[nH]c2ccccc23)ccc1O,-0.014
21,O=C(c1sc2ccccc2c1Cl)N1CCN(c2ccc(F)cc2)CC1,-0.238
22,COc1ccccc1CC(=O)Nc1cccc(C(=O)NN2C(=O)c3ccccc3C2=O)c1,-0.129
23,O=C(Nc1cccc(-c2cn3ccccc3n2)c1)c1cc2ccccc2oc1=O,0.101
24,CCOC(=O)c1cnc(SC2CC(=O)N(c3ccc(C)cc3)C2=O)nc1N (stereo not given),-0.16

row,SMILES,z-score
1,Cc1cc(SCC(=O)c2ccc3c(c2)OCO3)nc2ccccc12,0.243
2,Cn1c(=O)c2c(nc(CN3CCc4ccccc4C3)n2Cc2ccccc2)n(C)c1=O,-0.932
3,NNC(=O)CCS(=O)(=O)c1ccc2ccccc2c1,-0.0752
4,Cc1ccc(NC(=O)Cn2cccc2C2=NC(c3ccccc3)CO2)c(C)c1 (stereo not given),-0.0278
5,CC(C)Nc1nc(NC(C)C)nc(N(C)n2cnnc2)n1,-1.8
6,N#Cc1nc(-c2ccccc2F)oc1NCc1cccc2c1OCO2,-0.589
7,N#CC(C#N)=C1C=C2C=C(N3CCCCC3)CCC2CC1 (stereo not given),active: 10.9
8,CSCC[C@H](NC(=O)OC(C)(C)C)c1nnc(SCc2ccccc2)o1,-0.639
9,CC(C(=O)Nc1ccccn1)N1C(=O)C2C3C=CC(C3)C2C1=O (stereo not given),0.225
10,COC(=O)Cc1cc(=O)oc2cc(OC)ccc12,0.038
11,Fc1ccc(OCCCCCCN2CCCC2)cc1,0.0752
12,COc1cccc(OCCCCN2CCCCC2)c1,0.263
13,COc1ccc(/C=C2/N=C(c3cccs3)OC2=O)cc1OC(C)C,-0.157
14,Cc1ccc(CCNC(=O)CN(C)S(=O)(=O)c2cnc[nH]2)cc1,-0.164
15,NC(=O)Nc1ccc2c(c1)OCCO2,-0.121
16,CCOc1ccc(C(c2c(O)nc(SC)n(C)c2=O)c2c(O)nc(SC)n(C)c2=O)cc1,-0.171
17,COc1ccc(C2N(C(=O)c3ccccc3)CCN2C(=O)c2ccc(C)cc2)cc1 (stereo not given),0.0284
18,CCCN1Cc2cccc(C(=O)NCc3ccccc3)c2C1=O,-1.23
19,COc1ccc(-n2nc3c(c2NC(=O)C24CC5CC(CC(C5)C2)C4)CS(=O)C3)cc1 (stereo not given),0.0567
20,CN=C(Nc1ccccc1OC)SC1CC(=O)N(c2ccc(C(=O)OC)cc2)C1=O (stereo not given),-0.0907
21,O=C(NN1C(=O)c2ccccc2C1=O)C1CC2CCC1C2 (stereo not given),-0.259
22,N#Cc1c(NC(=O)COC(=O)c2ccc(F)cc2)sc2c1CCC2,-0.787
23,O=C1CC(N2CCN(S(=O)(=O)c3ccc(Cl)cc3)CC2)C(=O)N1CCc1ccccc1 (stereo not given),0.67
24,CCNc1nc(N2CCOCC2)nc(N(c2ccccc2)c2ccccc2)n1,-0.128

row,SMILES,z-score
1,OC(CNC1CCCC1)COc1c(F)cc(Br)cc1F (stereo not given),0.142
2,COC(=O)c1sc2nc(SCc3cccc(F)c3)n(N)c(=O)c2c1C,-0.146
3,N#CC1=C(N)OC2=C(C(=O)CC(c3ccco3)C2)C1c1ccc(OCc2c(F)cccc2Cl)cc1 (stereo not given),-0.068
4,COc1ccc(CNC(=O)Cc2c(C(=O)O)[nH]c3ccccc23)cc1,-0.136
5,CC1(c2ccccc2)CC(C)(C)N2C(=O)/C(=C3\SC(=S)NC3=O)c3cccc1c32 (stereo not given),active: 5.26
6,Cc1cc(C(F)(F)F)nc(SCC(=O)NC2CC3CCC2C3)n1 (stereo not given),-0.389
7,COc1ccc(-n2nc([N+](=O)[O-])c(=NCCc3ccccc3)n2O)cc1,-0.0204
8,C=CCOc1ccc(/C=N/O)cc1Cl,0.276
9,Clc1ss/c(=N\c2ccccn2)c1Cl,-0.261
10,Cn1c(=O)c2ncn(CC(=O)NCCOc3ccccc3)c2n(C)c1=O,-0.0185
11,Cc1cc(C(=O)CSc2nnc(-c3ccccc3)n2C)c(C)n1C,-0.546
12,c1cnc(N2CCSCC2)nc1,-0.316
13,CCOc1ccc2cc(C#N)c(SCC(=O)N3CCCC3)nc2c1,-0.694
14,N=c1ncn(CC(O)CN2CCOCC2)c2nc(N3CCOCC3)[nH]c12 (stereo not given),-0.0814
15,CC1CCCN(C(=O)C2CCCN(S(=O)(=O)c3cccc4nsnc34)C2)C1 (stereo not given),0.195
16,O=C(C1=C(O)C(=O)N(c2ncccn2)C1c1ccc(Cl)cc1)c1ccco1 (stereo not given),-0.273
17,O=C(NC1CCCCC1)c1ccc(Cl)c(NC(=O)c2ccccc2F)c1,-0.187
18,COc1cccc(/C=N/NC(=O)c2cc3c(OC)cccc3[nH]2)c1OC,-0.332
19,COc1ccccc1-n1c(COc2ccccc2-c2ccccc2)nnc1SCC(=O)c1c(N)n(C)c(=O)n(C)c1=O,-0.138
20,O=C(c1ccc(Cl)c(S(=O)(=O)Nc2ccccc2C(=O)N2CCc3ccccc3C2)c1)N1CCc2ccccc2C1,0.109
21,COc1ccc(N/C(C)=C2/C(=O)C(=O)N(CCO)C2c2ccc([N+](=O)[O-])cc2)cc1 (stereo not given),-0.701
22,O=C(/C=C/c1ccco1)N/C(=C\c1ccccc1)C(=O)NCCc1nc2ccccc2[nH]1,0.322
